According to patent publication US20260234738A1:
Residue numbers refer to the chain shown, from its start.

B1: mAb10934 (antibody)
heavy: [about 100 residues left out]ARWDWYFDLWGRGTLVTVSS[human IgG1 constant region left out]
light: DIQMTQSPSSLSASVGDRVTITCQASQDIWNYINWYQQKPGKAPKLLIYDASNLKTGVPSRFSGSGSGTDFTFTISSLQPEDIATYYCQQHDDLPPTFGQGTKVEIKRTVAAPSVFIFPPSDEQLKSGTASVVCLLNNFYPREAKVQWKVDNALQSGNSQESVTEQDSKDSTYSLSSTLTLSKADYEKHKVYACEVTHQGLSSPVTKSFNRGEC
B2: mAb10955 (antibody)
heavy: EVQLVESGGGLVQPGGSLRVSCAASGFTVSRNYMSWVRQAPGKGLEWVSVIYSGGSTFYADSVKGRFTISRDNSKNTLYLQMNSLRAEDTAIYYCARYIPRFDPWGQGTLVTVSS[human IgG1 constant region left out]
light: B1 light with W30S, I33L, Y36F, K42R, K55E, H91Y, D93N, P96I, K103R, V104L
B3: mAb10954 (antibody)
heavy: EVQLVESGGGLVQPGGSLRLSCAASGITVSSNYMSWVRQAPGKGLEWVSLIYSGGSTYYADSVKGRFTISRDNSKNTLYLQMNSLRVEDTAVYYCARDHGMAAAGYNYWGQGTLVTVSS[human IgG1 constant region left out]
light: B1 light with W30N, N31K, I33L, K55E, S76N, I83F, Y87F, H91Y, D93N, T97A
B4: mAb10935 (antibody)
heavy: EVQLVESGGGLVQPGGSLRLSCAASGFTVSSNYMSWVRQAPGKGLEWVSLIYSGGSTYYADSVKGRFTISRHNSKNTLYLQMNSLRSEDTAVYYCARVPLGDYYYGMDVWGQGTTVTVSS[human IgG1 constant region left out]
light: B1 light with W30N, N31K, I33L, K55E, H91S, D93N, P96L, Q100G
B5: mAb10966 (antibody)
heavy: EVQLVESGGGLVQPGGSLRLSCAASGLTVSSNYMSWVRQAPGKGLEWVSVIYSGGSTFYADSVKGRFTISRDNSKNTLYLQMNSLRPEDTAVYYCAREGRIAATGYGMDVWGQGTTVTVSS[human IgG1 constant region left out]
light: B1 light with W30S, I33L, K55G, G66R, Q89H, H91Y, D93N, P96Q, Q100P, E105D
B6: mAb10938 (antibody)
heavy: EVQLVESGGGLVQPGGSLRLSCAVSGFTVSSNYMSWVRQAPGKGLEWVSLIYSGGSTFYADSVKGRFTISRHNSKNTLYLQMNSLRAEDTAVYYCAREGGYSYDYNYWGQGTLVTVSS[human IgG1 constant region left out]
light: B1 light with W30R, I33L, K55E, S65I, H91Y, D93N, P96I, K103R, V104L
B7: mAb10920 (antibody)
heavy: QVQLVESGGGVVQPGRSLRLSCAASGFTFSYYGMHWVRQAPGKGLEWVAVIWYDGSNKFYADSVKGRFTISRDNSKNTLYLQMNSLRAEDTAVYYCAAARPGYYYGMDVWGQGTTVTVSS[human IgG1 constant region left out]
light: DIQMTQSPSSLSASVGDRVTITCRASQGISNYLAWFQQKPGKAPNSLIYAASSLQRGVPSKFSGSGSGTDFTLTISSLQPEDFATYYCQQYNSYPRTFGQGTKVEIKRTVAAPSVFIFPPSDEQLKSGTASVVCLLNNFYPREAKVQWKVDNALQSGNSQESVTEQDSKDSTYSLSSTLTLSKADYEKHKVYACEVTHQGLSSPVTKSFNRGEC
B8: mAb10964 (antibody)
heavy: QVQLQESGPGLVKPSETLSLTCTVSGGSINNYYWIWIRQPPGKGLEWIGYIYHSGSTNYNPSLKSRVTISVDTSKNQFSLKVSSVTAADTAVYYCANMVRGVYEDDYWGQGTLVTVSS[human IgG1 constant region left out]
light: DIQMTQSPSSLSASVGDRVTITCRASQSISNYLNWYQQKPGKAPKLLIFAASSLRSGVPSRFSGSGSGTDFTLTISSLHPEDFATYYCQQNYNTPLTFGPGTKVDIKRTVAAPSVFIFPPSDEQLKSGTASVVCLLNNFYPREAKVQWKVDNALQSGNSQESVTEQDSKDSTYSLSSTLTLSKADYEKHKVYACEVTHQGLSSPVTKSFNRGEC
B9: mAb11004 (antibody)
heavy: QVQLVESGGGVVQPGRSLRLSCVASGFTFSIYGMDWVRQAPGKGLEWVAVISYDGSNKYYADSVKGRFTISRDNSKNTLYLQMNSLRPEDTAVYYCAKDREAAADAFDIWGQGTMVTVSS[human IgG1 constant region left out]
light: DIQMTQSPSSVSASVGDRVTITCRASQGISSWLAWYQQKPGKAPKLLIYAASSLHSGVPSRFSGSGSGTDFTLTISSLQPEDFATYYCQQANSFRLTFGGGTKVEIKRTVAAPSVFIFPPSDEQLKSGTASVVCLLNNFYPREAKVQWKVDNALQSGNSQESVTEQDSKDSTYSLSSTLTLSKADYEKHKVYACEVTHQGLSSPVTKSFNRGEC
B10: mAb10921 (antibody)
heavy: EVQLVESGGGLVQPGGSLRLSCAASGITVSSNYMSWVRQAPGKGLEWVSVIYSGGSTFYADSVKGRFTISRHNSKNTLYLQMNSLRAEDTAVYYCARERNFDAFDIWGQGTMVTVSS[human IgG1 constant region left out]
light: DIQMTQSPSSVSASVGDRVTITCRASQGISSWLAWYQQKPGKAPKLLIYAASSLQSGVPSRFSGSGSGTDFTLTISSLQPEDFATYYCQQANSFPLFTFGPGTKVDIKRTVAAPSVFIFPPSDEQLKSGTASVVCLLNNFYPREAKVQWKVDNALQSGNSQESVTEQDSKDSTYSLSSTLTLSKADYEKHKVYACEVTHQGLSSPVTKSFNRGEC
B11: mAb10930 (antibody)
heavy: EVQLVESGGGLVQPGRSLRLSCAASGFTFDDYAMYWVRQAPGKGLEWVSGISWNSGSIGYADSVKGRFTISRDNAKNSLYLQMNSLRAADTALYYCAKDKDWNSRGYYYYGMDVWGQGTTVTVSS[human IgG1 constant region left out]
light: [about 100 residues left out][about 100 residues left out]
B12: mAb11010 (antibody)
heavy: QVQLVESGGGVVQPGRSLRLSCAASGFTFSSYGMHWVRQAPGKGLEWVAVISYDGSYKYYADSVKGRFTISRDNSKNTLYLQMNSLRAEDTAVYYCAIDGGTVTTIFDYWGQGTLVTVSS[human IgG1 constant region left out]
light: [about 100 residues left out][about 120 residues left out]

What follows are binders tested against UNMODIFIED-SARS-CoV-2 Spike Protein (RBD)(R319-F541).mmH (SARS-CoV-2) (assay: Luminex bead binding, antibody supernatant). Details: remark: other sources report otherwise.

Binder	binding signal (MFI)
B1	33100
B2	28600
B3	28500
B4	31900
B5	29500
B6	34500
B7	35500
B8	30000
B9	6510
B10	31700
B11	29500
B12	6390
